From publication PMC12136788
The list shows a part of the results.

T1: UNK ZnF1-3 (human, UniProt Q9C0B0 31-174)
T1 sequence: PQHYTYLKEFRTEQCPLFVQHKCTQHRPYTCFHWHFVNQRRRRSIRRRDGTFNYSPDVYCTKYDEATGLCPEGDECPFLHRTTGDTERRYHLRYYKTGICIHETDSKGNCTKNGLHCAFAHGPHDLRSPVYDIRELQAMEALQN

B1: chr9:21333030:21333031:-_ENSG00000198642_ENST00000537938|hu_hu|motif|central (ssRNA)
RNA: GGGAGUUCUACAGUCCGACGAUCAAGGGGAAGUAUUAGAUCACCCAUGACGUACUGCAAAGGUGUUACACCUUAGACCGGAGAAUGAUCUGAAGGUGCUGAAAGAGGUGAUUCUCUAGAAGGUGACCCAGGGUUUUCUUCAGGCAACAGAGGAUUGAGCAUCA
B2: chr21:40768814:40768815:+_ENSG00000182093_ENST00000333781|hu_hu|FALSE|FALSE (ssRNA)
RNA: GGGAGUUCUACAGUCCGACGAUCCCAUCCUCCUGUUCAGCUGAACGGAUGAAGCACAAUAGCGACAACUUUGUUACAGACUAAAAUCCAACAGGUAAUUCCAACACCACCUGCUACUCUAGUAGGAAAGGCUACCAGGCGGUCCAACAGAGGAUUGAGCAUCA
B3: 25784004_25789866_2234_CDS_ENSG00000091490_ENST00000264868|human|control|control (ssRNA)
RNA: GGGAGUUCUACAGUCCGACGAUCAUACCAUCCCAGGCCAUUGACUGCCUGAUGCAAUCCCUUGGAAGCUGCUUUCUUCAUCAGCUCUAAGGCAAGCCGUCUGUUCUUUUUUACUCCUUGACCCUUGAAUAGCACAAUGGCAUACAACAGAGGAUUGAGCAUCA
B4: 137287219_137288168_2140_3pUTR_ENSMUSG00000041879_ENSMUST00000161189|mouse|control|control (ssRNA)
RNA: GGGAGUUCUACAGUCCGACGAUCUGUAGUCAAGAUGUCAAUGGCUGUCGCACAGAGCCCCGCAGGGAUCUUGUCUGCUGGGGCCUGCAUUAUGCUGACCAGCGUGGGAAUCAGCCUCAUCUGCAUGGGACCUUGACAGGCUUCCAACAGAGGAUUGAGCAUCA
B5: 55057811_55057931_3195_CDS_ENSMUSG00000052713_ENSMUST00000064763|mouse|control|control (ssRNA)
RNA: GGGAGUUCUACAGUCCGACGAUCCAUGCGUGAGGCACUCCCGAUGGAAGGGCUGGGGGCAUUGUCCGUGAAUGUGUAAACCUUAUCGGCCUCGGCUUUGAUGCUGGCCAUGCGGCUCUCCUGAGACUCUGACAAUCCAUUAGCCAACAGAGGAUUGAGCAUCA
B6: chr19:8913615:8913616:-_ENSMUSG00000071658_ENSMUST00000096259|mus_hu|mus_mus_mus_hu_False|1_78 (ssRNA)
RNA: GGGAGUUCUACAGUCCGACGAUCAGGGUACCAAAACCUUCUGCCUGAAAUGGGUGCCCCACCCUGCAGGGAGUUGCAGCUGAAAGUAUCUGAUGCAGAAGCAGUGACUAUACGAAAGGAGGCCCCUGGGGAGGGCCCGAGAUCCAACAGAGGAUUGAGCAUCA
B7: 70566570_70570526_580_3pUTR_ENSMUSG00000054693_ENSMUST00000067880|mouse|control|control (ssRNA)
RNA: GGGAGUUCUACAGUCCGACGAUCAAUGUAUCUCUCUGCUGGCUCAAUGUAAAACGUGCCACCACGAGUCUUGAUGAAACCUUCAAAUCUUCCAUCAAUGACAGACCCAUGACUAAAGCUUCCUUCUUCACCAUAAAUAUGUCCCAACAGAGGAUUGAGCAUCA
B8: chr1:39494447:39494448:+_ENSG00000168653_ENST00000372967|hu_mus|hu_hu_hu_mus_False|98_108 (ssRNA)
RNA: GGGAGUUCUACAGUCCGACGAUCGCAUCGACCAGCCAUCUUGUAGGGCUGUUCUGCGCUUAGGAACAUAAAGUGCCGGUCCAGGCUGAUGCCCAGCUUUUUCUGUAUGUCAAGGAAAGGCAUGGCUCUGCAGUGCCCUUGUCACAACAGAGGAUUGAGCAUCA
B9: 24167579_24190110_409_CDS_ENSG00000127863_ENST00000382263|human|control|control (ssRNA)
RNA: GGGAGUUCUACAGUCCGACGAUCGCAGUCCAGACAGGGCUUGCAUUUCUGGAAGCCCCAGUCCUCCUUGAACCUGUGCAGCCGGCACGUCACACACUGUGCAUCCUCCCCAUAGCCGAAGCCACAUUCCUUAGACAACUCCAUCAACAGAGGAUUGAGCAUCA
B10: chr7:75932113:75932114:+_ENSG00000106211_ENST00000248553|hu_hu|hu_hu_hu_mus_False|28_88 (ssRNA)
RNA: GGGAGUUCUACAGUCCGACGAUCCUGCGACCACUCAUCGGGCAACCGGGGCAGCCCGAAAGCUUGAUCGAAGAGGCGGCUGUGUGCAGGGUACCAGUCCCGGAAUGCCCAGCUGGGCGGGCUCCGCAGCAGCGAGAAGGGCACCAACAGAGGAUUGAGCAUCA
B11: chr13:100192284:100192285:-_ENSMUSG00000052727_ENSMUST00000064762|mus_hu|motif|central (ssRNA)
RNA: GGGAGUUCUACAGUCCGACGAUCGUAAGAUUUCCAUUAGCAAAUGAUUAAAUCUUAAUUAAAUGAGUAUUGGAAAGCUCCGGGACUGCAUAAGCUAUUGGAGACACUUAAAACAUUCAUAUACACUGGGGAAACCAUUCACUACAACAGAGGAUUGAGCAUCA
B12: chrX:20185780:20185781:-_ENSG00000177189_ENST00000379565|hu_mus|FALSE|FALSE (ssRNA)
RNA: GGGAGUUCUACAGUCCGACGAUCUUUGGUUAUAGUAAACAGGACAGCGCUGGCCUCUCGCUCUGAGAAAAACUUCUGUCUAAGAAUCUUAUCCAGCAAUUCACCUCCUUUCAUAAGUUCUGUUACUACAUACACAUAUUUUCCCAACAGAGGAUUGAGCAUCA
B13: chr8:127356239:127356240:+_ENSMUSG00000036913_ENSMUST00000167588|mus_mus|FALSE|FALSE (ssRNA)
RNA: GGGAGUUCUACAGUCCGACGAUCCACCCUGCUAUCAGCAUAUUGCUCCCUGGCUCUGGAUUCCUUCAGGCCACAGGGCAGCUAAGGACAUUUUGGAACCACAUAAAGAUCUGAAGGUACAGCCUGGACCACACACGGUGUGAGCAACAGAGGAUUGAGCAUCA
B14: chr8:22473583:22473584:+_ENSG00000158941_ENST00000389279|hu_hu|motif|central (ssRNA)
RNA: GGGAGUUCUACAGUCCGACGAUCAGGUUCAGGUGGGGACACGACCUUUUCAGGAAGGCUCAGUAGCAUCUUAUAAACUCGGUAGCCAAAAUCCCUCUGGAGCAUCUCCAGAAACAGCUCGGCCAGCACCAUCACCUCAAAAGACAACAGAGGAUUGAGCAUCA
B15: chr15:79186471:79186472:+_ENSG00000185787_ENST00000426013|hu_hu|FALSE|FALSE (ssRNA)
RNA: GGGAGUUCUACAGUCCGACGAUCGGGUGCAUCGGGAUGAUCUGCAAGAAUUUCAGCAUACUGUGGUCUCUCAAAUUUAUAGAGUAGCUGGGUACCCAACAUUACGUUGAAGUAUUCUUUUAUCCCUGCCACAACUUCAUUAACCAACAGAGGAUUGAGCAUCA
B16: chr8:81716360:81716361:+_ENSMUSG00000071064_ENSMUST00000098614|mus_hu|motif|central (ssRNA)
RNA: GGGAGUUCUACAGUCCGACGAUCCAAGUAGGCUCCCCAUCCAUGGCGGGAUGACUGGCAAAGGGAGGUGUAGCACACCGGCGGGGUGUGGGGAAGAGGGGCUGGCGUGGAGGGGACUGAGGAGACCAUGGUGUGGACAGACAGCAACAGAGGAUUGAGCAUCA
B17: chr2:48026839:48026840:+_ENSG00000116062_ENST00000540021|hu_hu|hu_hu_hu_mus_False|58_78 (ssRNA)
RNA: GGGAGUUCUACAGUCCGACGAUCAUAGUGAGCCACUAGCGUCCUAAAUCUGGAACAAUGGCGAUCAUCCGAAAACUGACCUAUGAAAAACUUGCCCAGUGAAGUGUCCACAAAGCAAACACCAUACACACGAGUGUGACCAGACAACAGAGGAUUGAGCAUCA
B18: 139285311_139288915_2321_CDS_ENSG00000064393_ENST00000406875|human|control|control (ssRNA)
RNA: GGGAGUUCUACAGUCCGACGAUCAUUAUAAUGGCUUCCGUGAGCAUGCGUAUUUCUCCAGUCCGCCAGCUGCUGGGUGCCUGCCAUGGUCUCGGGAAUCACGGUGGCAUGCUGCACUGAUGUGUGGGUGGCCACUCCAGUCAGCAACAGAGGAUUGAGCAUCA
B19: 19986169_19991572_1668_CDS_ENSMUSG00000002428_ENSMUST00000002502|mouse|control|control (ssRNA)
RNA: GGGAGUUCUACAGUCCGACGAUCUUUUGAAAGCCAGGCUGAAUCUCUAAUACGAUCAGGACCAUAAUAAACAUAAAAAUUCAAGUGCACUUCUGAUUUUACAUGUUGUCCAAACUGGUCAAUCCAGUUGCUGAGCACAGAGAGCAACAGAGGAUUGAGCAUCA
B20: chr20:16721599:16721600:+_ENSG00000125870_ENST00000246071|hu_mus|FALSE|FALSE (ssRNA)
RNA: GGGAGUUCUACAGUCCGACGAUCCACAUGUUACUUCUUGGCAUAGGUGAUCUUCAUGGCAUGGGACGGUGUAAUCUUAAACCCCUGCAGAGCAUCUCUGGCAGCUCCAGCCUGACCAUCAUUCUCAAAUUCUACAAAUGCAAUCAACAGAGGAUUGAGCAUCA
B21: chr2:73479818:73479819:+_ENSG00000135624_ENST00000258091|hu_mus|FALSE|FALSE (ssRNA)
RNA: GGGAGUUCUACAGUCCGACGAUCAGCUGCUGUCAGAGCGUUGAUGCGCACCAUGGCUGGCUCCCACACAAAUGCCUGGAAGUUGUCGGCGAUGUUCUCAUUGUUGAUGUCCACCCCAUACCACAUACCUCCCUGUGCGUGUCGCAACAGAGGAUUGAGCAUCA
B22: chr19:37063429:37063430:+_ENSMUSG00000040565_ENSMUST00000099494|mus_mus|motif|central (ssRNA)
RNA: GGGAGUUCUACAGUCCGACGAUCCAUAGCAUCCCAAAGAUGUGGCAACUUCACUGCCAUUUCAGCACCAAAAUGCUUCACGGUAGUUGUUAAGGCAAAUUCAGCUCCUCUCCGCUGUACCAGGUAAGGCUUCUGACCCUCAUCCAACAGAGGAUUGAGCAUCA

What follows are binders tested against T1, UNK ZnF1-3 (assay: nsRBNS (natural sequence RNA bind-n-seq); RBNS binding buffer (assumed for nsRBNS): 25 mM Tris pH 7.5, 150 mM KCl, 3 mM MgCl2, 0.01% Triton X-100, 500 ug/ml BSA, 20 U/ml SUPERase-In, 4 C; UNK is unkempt and MSI1 is Musashi-1; names of the RNAs are library labels; protein concentration not given here; high values mean tight binding).

Binder	binding signal
B1	0.908 enrichment R
B2	1.04 enrichment R
B3	0.658 enrichment R
B4	0.733 enrichment R
B5	0.932 enrichment R
B6	1.33 enrichment R
B7	0.982 enrichment R
B8	0.941 enrichment R
B9	1.41 enrichment R
B10	1.11 enrichment R
B11	1.47 enrichment R
B12	0.941 enrichment R
B13	0.941 enrichment R
B14	0.822 enrichment R
B15	1.19 enrichment R
B16	2.15 enrichment R
B17	1.35 enrichment R
B18	0.48 enrichment R
B19	1.67 enrichment R
B20	1.41 enrichment R
B21	1.14 enrichment R
B22	0.821 enrichment R
